# Experimental data published in paper PMC12136788.
# The other results are listed elsewhere or left out.
# T1: UNK ZnF1-6 (called full-length) (human, UniProt Q9C0B0 30-357)
# T1 sequence: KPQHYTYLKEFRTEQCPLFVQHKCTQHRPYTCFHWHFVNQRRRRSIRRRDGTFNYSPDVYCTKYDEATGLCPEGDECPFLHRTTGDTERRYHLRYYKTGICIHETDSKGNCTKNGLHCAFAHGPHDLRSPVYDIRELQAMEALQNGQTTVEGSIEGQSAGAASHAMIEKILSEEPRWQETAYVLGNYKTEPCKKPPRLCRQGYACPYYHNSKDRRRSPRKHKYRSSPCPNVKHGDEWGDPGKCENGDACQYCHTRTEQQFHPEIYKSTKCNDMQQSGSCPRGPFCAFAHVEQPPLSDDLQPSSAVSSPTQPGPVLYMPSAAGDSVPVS
# B1: ENSG00000124766:be:win_3701|3pUTR|ENSG00000124766|bound_else_gene|NA|bound_elsewhere_windowed (ssRNA)
# RNA: GGGAGUUCUACAGUCCGACGAUCUCAGGUUUAUAGCUGUUGUGUUUAAAAAUUGAAAAAAGUGGAAAACAUCUUUGUACAUUUAAGUCUGUAUUAUAAUAAGCAAAAAGAUUGUGUGUAUGUAUGUUUAAUAUAACAUGACAGCAACAGAGGAUUGAGCAUCA
# B2: chr18:70325936:70326038:+|CDS|ENSG00000170677|unk|FALSE|unique (ssRNA)
# RNA: GGGAGUUCUACAGUCCGACGAUCAGCUUUCGCUCCCAUGGUAAAACACUUCACACUAGAAUUGAGCACUCAAAUGGUAGGUUUAGCUUUUAUGAACAGCCAGAUGUGGAAGGACAUACGUCCAUAGUUGAUCUAAUUGAGCAUCAACAGAGGAUUGAGCAUCA
# B3: chr16:1999495:2000256:-|CDS|ENSG00000167962|control|control|control (ssRNA)
# RNA: GGGAGUUCUACAGUCCGACGAUCUGGCACCGCCCCCACCAGCCUUGUCUCUGCCUGGAACAGCAGCAGUAGCAGCAAGAAGGUAGCACAGCCCCCACUCUCGGCGCAGGCUACCGGCAGCGGCCAGCCCACCAGGAAGGCUGGCAACAGAGGAUUGAGCAUCA
# B4: ENSG00000198589:be:win_8851|3pUTR|ENSG00000198589|bound_else_gene|NA|bound_elsewhere_windowed (ssRNA)
# RNA: GGGAGUUCUACAGUCCGACGAUCUUAUUCCAGCUAUAAUAUUAUGAAGAACAUUUCCCAUGCAUCUACAAGCUUGAGAAAUAGGAUUUUCACAGUGGGGAAGUGGGUUACAAUAUUGGAAUAGGAAAAUUUGAUGCUGUAAUUCAACAGAGGAUUGAGCAUCA
# B5: chr7:5620113:5620210:-|3pUTR|ENSG00000011275|msi1_unk|FALSE|overlapping (ssRNA)
# RNA: GGGAGUUCUACAGUCCGACGAUCGUCACUUUGUAUAAAAACAAGAAACGAUUAGUUCAUUAAACUUUUUCUUUACCUUCUGGUAGUAAAAAUAGAUAAAAUAAUUCCGUUUCAACUACUGUGUGUAAAAAGCCUGUAUCAUAUCAACAGAGGAUUGAGCAUCA
# B6: chr1:43978039:43978149:+|3pUTR|ENSG00000117410|unk|total|mutant (ssRNA)
# RNA: GGGAGUUCUACAGUCCGACGAUCGGCCGUGCCUCACUUUUAUUUAUUGCUGGUUUUCCUGGGACAGCUGGAGCUGUGUCCCUCCGCCUUUCAGAGGCUUGGUGUUCAGGGCCCUCCCUGCACUCCCCUCUUGCUGCGUGUUGACAACAGAGGAUUGAGCAUCA
# B7: chr7:92141642:92142809:-|three_prime_utr|ENSG00000240720|control|control|control (ssRNA)
# RNA: GGGAGUUCUACAGUCCGACGAUCAACAGUUUCUUUUGGAUCUUUUUGCAGAGCUACUAUGGAAGAUGCACUCUUUCUGCGGGUAGGUUAUGAGUCUUUUAGUCUUGGUAUAUCAUGCACAGUGUGUAGUAGUCUGCCGAGAGCCAACAGAGGAUUGAGCAUCA
# B8: chr16:2457226:2457327:+|3pUTR|ENSG00000162063|unk|FALSE|unique (ssRNA)
# RNA: GGGAGUUCUACAGUCCGACGAUCCAAGCCAUCAGAAUGUUGAAAUGAGGGUGAAGAGCUCAGAUCCCUCUCUUUGGAAAGUUUAGCCUGGAAGCAGUUGGCCACACUGUGUGGAGGGCACCUCUCUGUCCCUUCCGUGUCUCACAACAGAGGAUUGAGCAUCA
# B9: chr12:57820040:57820141:-|3pUTR|ENSG00000175215|msi1|total|mutant (ssRNA)
# RNA: GGGAGUUCUACAGUCCGACGAUCUUUUGCUUAUCAUGUUCCAUUUCGUGCCGCUUUCCCCCUUCAAGAUGCCAUUUGGAGGGCCGGGGAUCUGCUUCCCACUGUGACUGGGCUAUGGGAUUCUGACUACCUUGCUUACAGAUUCAACAGAGGAUUGAGCAUCA
# B10: chr5:80437677:80437780:+|CDS|ENSG00000039319|unk|total|mutant (ssRNA)
# RNA: GGGAGUUCUACAGUCCGACGAUCUUCCUUUCAGGAAGAUAAGACUGUUAUAAAACAAUCUGCACAAGAAGACUCAAAAAGUUCCGACCUUAAGGAUAAUGAUGUAAUCCAAGAUUCCUCUUCAGCUUUACAUGUUUCCAGUAACAACAGAGGAUUGAGCAUCA
# B11: chrX:50386357:50386586:-|CDS|ENSG00000274588|control|control|control (ssRNA)
# RNA: GGGAGUUCUACAGUCCGACGAUCAGAAUAUGCAGACAGCAGCAAGGCAGAUAGGAAGCCCUUCAUUCCUCAAAUAGACCACAUAGCCAAGUGCAAGUUGGAGCUGGCUACAAAGGCCCAGAGUCUCCAGAAAUCCUUGAAACUCAACAGAGGAUUGAGCAUCA
# B12: chr11:8104520:8104621:+|3pUTR|ENSG00000166402|msi1|FALSE|unique (ssRNA)
# RNA: GGGAGUUCUACAGUCCGACGAUCGGCAAUCAGCAAUCAACUGAGGUUUCUUAAUUGUGAUUAUAUUCCUGAGAAUGAAUGAGUAGGAAAGGAAUAAGGAUGUUGUUAUGAUCGCCUGUGGAUUUUGUCCAUUCAUCUCAUGCUCAACAGAGGAUUGAGCAUCA
# B13: chr2:96185838:96185916:-|3pUTR|ENSG00000084090|msi1_unk|total|mutant (ssRNA)
# RNA: GGGAGUUCUACAGUCCGACGAUCUGGGAGACUAAUCCUUUCCGACCGCCGCUUUUUGAUGCUCAAAACAUCACAUUUAAAUUCCGUUUAAAAAUUUUUUAACUUUUGUGUCAAACCGGAGUUGAGGAAUUGAGCAGGAUUCUACAACAGAGGAUUGAGCAUCA
# B14: chr9:128108756:128108857:+|3pUTR|ENSG00000148339|msi1|total|mutant (ssRNA)
# RNA: GGGAGUUCUACAGUCCGACGAUCAAGGCAGCAGCCCUGGCUCCUUUCCUUUGGCAGGUUGGGGAAGGGCUUGCCCCCAGCCUCCGGAUUUCAGGGUUUGACUGGGGGCGUGGAGAGAGAGGGAGGAACCUCAAUAACCUUGAACAACAGAGGAUUGAGCAUCA
# Target: T1, UNK ZnF1-6 (called full-length)
# Test: nsRBNS (natural sequence RNA bind-n-seq); RBNS binding buffer (assumed for nsRBNS): 25 mM Tris pH 7.5, 150 mM KCl, 3 mM MgCl2, 0.01% Triton X-100, 500 ug/ml BSA, 20 U/ml SUPERase-In, 4 C; UNK is unkempt and MSI1 is Musashi-1; names of the RNAs are library labels; protein concentration not given here; high values mean tight binding
row,Binder,binding signal
1,B1,0.65 enrichment R
2,B2,1.06 enrichment R
3,B3,0.776 enrichment R
4,B4,0.666 enrichment R
5,B5,1.37 enrichment R
6,B6,0.779 enrichment R
7,B7,0.61 enrichment R
8,B8,0.508 enrichment R
9,B9,0.685 enrichment R
10,B10,0.323 enrichment R
11,B11,1.56 enrichment R
12,B12,0.31 enrichment R
13,B13,0.371 enrichment R
14,B14,0.713 enrichment R
